According to patent publication US20100075326A1:

Biological target: base coil K3 (three heptad repeats), YS2H bait fused to Aga2 with C-terminal FLAG tag (yeast)
Sequence (chain, as listed by the source): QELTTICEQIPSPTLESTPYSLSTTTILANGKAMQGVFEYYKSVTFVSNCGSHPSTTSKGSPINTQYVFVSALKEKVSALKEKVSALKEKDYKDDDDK

MFI of complemented split eGFP, secretory pathway, control row 'K3' (K3-NeGFP-Flag : CeGFP-Myc, acid coil deleted); Flag MFI 129: 8
B1: CeGFP-Myc (prey of the row 'K3' in Figure 2c, acid coil deleted) (protein)
secreted prey: DKQKNGIKVNFKIRHNIEDGSVQLADHYQQNTPIGDGPVLLPDNHYLSTQSALSKDPNEKRDHMVLLEFVTAAGITLGMDELYKEQKLISEEDL
